Data on 50 sequences can be found in the supplement of paper PMC12645437, “Orthogonal IMiD-Degron Pairs Induce Selective Protein Degradation in Cells” (ACS Chemical Biology, 2025).

B1: Q9UKT9 (peptide)
chain: FTCEICGHLFTQKGNLLRHIKL
B2: Q9UKT9 (peptide)
chain: FFCPQCGAKFTQKGNLLRHIKL
B3: Q9UKT9 (peptide)
chain: FECPICGHEFTQKGNLLRHIKL
B4: Q9UKT9 (peptide)
chain: FCCNVCGAPFTQKGNLLRHIKL
B5: Q9UKT9 (peptide)
chain: FACEICGRMFTQKGNLLRHIKL
B6: Q9UKT9 (peptide)
chain: FACNQCGRAFTQKGNLLRHIKL
B7: Q9UKT9 (peptide)
chain: FHCEICGHFFTQKGNLLRHIKL
B8: Q9UKT9 (peptide)
chain: FNCEICGANFTQKGNLLRHIKL
B9: Q9UKT9 (peptide)
chain: FMCEICGRVFTQKGNLLRHIKL
B10: Q9UKT9 (peptide)
chain: FICDVCGAYFTQKGNLLRHIKL
B11: Q9UKT9 (peptide)
chain: LDCPICGFPCTQKGNLLRHIKL
B12: Q9UKT9 (peptide)
chain: FDCDVCGAEFTQKGNLLRHIKL
B13: Q9UKT9 (peptide)
chain: LGCNQCGFNCTQKGNLLRHIKL
B14: Q9UKT9 (peptide)
chain: FVCPICGAFFTQKGNLLRHIKL
B15: Q9UKT9 (peptide)
chain: LNCEICGFMCTQKGNLLRHIKL
B16: Q9UKT9 (peptide)
chain: FVCEICGRYFTQKGNLLRHIKL
B17: Q9UKT9 (peptide)
chain: FACEVCGAEFTQKGNLLRHIKL
B18: Q9UKT9 (peptide)
chain: FNCSVCGHAFTQKGNLLRHIKL
B19: Q9UKT9 (peptide)
chain: FKCNICGAEFTQKGNLLRHIKL
B20: Q9UKT9 (peptide)
chain: FQCEICGAQFTQKGNLLRHIKL
B21: Q9UKT9 (peptide)
chain: FVCPQCGAQFTQKGNLLRHIKL
B22: Q9UKT9 (peptide)
chain: FSCNQCGRIFTQKGNLLRHIKL
B23: Q9UKT9 (peptide)
chain: LQCPICGFACTQKGNLLRHIKL
B24: Q9UKT9 (peptide)
chain: FWCDICGAGFTQKGNLLRHIKL
B25: Q9UKT9 (peptide)
chain: LSCEICGFDCTQKGNLLRHIKL
B26: Q9UKT9 (peptide)
chain: FICDICGACFTQKGNLLRHIKL
B27: Q9UKT9 (peptide)
chain: LICEICGFLCTQKGNLLRHIKL
B28: Q9UKT9 (peptide)
chain: FHCDVCGATFTQKGNLLRHIKL
B29: Q9UKT9 (peptide)
chain: LCCNQCGFWCTQKGNLLRHIKL
B30: Q9UKT9 (peptide)
chain: FQCDQCGAQFTQKGNLLRHIKL
B31: Q9UKT9 (peptide)
chain: FMCPQCGALFTQKGNLLRHIKL
B32: Q9UKT9 (peptide)
chain: FYCPICGRAFTQKGNLLRHIKL
B33: Q9UKT9 (peptide)
chain: FGCNQCGAPFTQKGNLLRHIKL
B34: Q9UKT9 (peptide)
chain: FHCEVCGAYFTQKGNLLRHIKL
B35: Q9UKT9 (peptide)
chain: FGCEVCGAVFTQKGNLLRHIKL
B36: Q9UKT9 (peptide)
chain: FVCDVCGADFTQKGNLLRHIKL
B37: Q9UKT9 (peptide)
chain: FVCDQCGALFTQKGNLLRHIKL
B38: Q9UKT9 (peptide)
chain: FDCPICGHDFTQKGNLLRHIKL
B39: Q9UKT9 (peptide)
chain: FLCPVCGAKFTQKGNLLRHIKL
B40: Q9UKT9 (peptide)
chain: FCCPICGHPFTQKGNLLRHIKL
B41: Q9UKT9 (peptide)
chain: LKCEICGFCCTQKGNLLRHIKL
B42: Q9UKT9 (peptide)
chain: FHCDICGAHFTQKGNLLRHIKL
B43: Q9UKT9 (peptide)
chain: FYCPICGHIFTQKGNLLRHIKL
B44: Q9UKT9 (peptide)
chain: FFCDVCGARFTQKGNLLRHIKL
B45: Q9UKT9 (peptide)
chain: FHCPICGAYFTQKGNLLRHIKL
B46: Q9UKT9 (peptide)
chain: LSCNQCGFWCTQKGNLLRHIKL
B47: Q9UKT9 (peptide)
chain: FECNQCGRTFTQKGNLLRHIKL
B48: Q9UKT9 (peptide)
chain: LGCPICGFCCTQKGNLLRHIKL
B49: Q9UKT9 (peptide)
chain: FICEQCGARFTQKGNLLRHIKL
B50: Q9UKT9 (peptide)
chain: FSCPICGARFTQKGNLLRHIKL

The other results are listed elsewhere or left out.
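Also: jurkat cells carrying a lentiviral library of mutant zinc finger degrons fused to EGFP plus mCherry, mCherry+ cells FACS sorted, degron abundance counted by next-generation sequencing.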

The target of this assay is no compound (DMSO). The assay is described as follows: log2 fold change of degron read counts, EGFP-low vs EGFP+ sorted cells; higher = lower degron-EGFP level without compound (poor expression or instability). Conditions: compound: DMSO control; 18 h.
As to B1, the “log2 fold change of degron read counts” value was -1.85. To B2 belongs -0.419; to B3, -0.937. On to B4, for which the “log2 fold change of degron read counts” value is 0.0743.

Regarding B5, the “log2 fold change of degron read counts” value is -1.56. With B6, the “log2 fold change of degron read counts” value was -0.682. To B7 belongs 0.217; to B8, -0.621; to B9, -0.794. Take B10: the “log2 fold change of degron read counts” value was -0.662. Take B11: the “log2 fold change of degron read counts” value was -0.272.

For B12, the “log2 fold change of degron read counts” value was -1.9. With B13, the “log2 fold change of degron read counts” value was determined as 0.981. On to B14, for which the “log2 fold change of degron read counts” value is 0.273. The same measure for B15: 0.207; for B16: -1.37; for B17: -2.71. For B18, the “log2 fold change of degron read counts” value was -0.265. Consider B19, for which the “log2 fold change of degron read counts” value was -3.14. As for B20, the “log2 fold change of degron read counts” value was -1.33. Consider B21, for which the “log2 fold change of degron read counts” value was -0.612. Turning to B22, the “log2 fold change of degron read counts” value was 0.0933. B23: the “log2 fold change of degron read counts” value came to 0.854.

As to B24, the “log2 fold change of degron read counts” value is -0.3.

For B25, the “log2 fold change of degron read counts” value was -0.57. As for B26, the “log2 fold change of degron read counts” value was -1.33. To B27 belongs 0.621; to B28, -1.84; to B29, 1.7. Take B30: the “log2 fold change of degron read counts” value is -1.78.

In the case of B31, the “log2 fold change of degron read counts” value worked out at 0.264.

For B32, the “log2 fold change of degron read counts” value is -3.34.

In the case of B33, the “log2 fold change of degron read counts” value came out at 0.439. To B34 belongs -1.45; to B35, -1.84; to B36, -2.61. As to B37, the “log2 fold change of degron read counts” value was -2.49. B38: the “log2 fold change of degron read counts” value was -0.641. As to B39, the “log2 fold change of degron read counts” value was -0.0534.

As to B40, the “log2 fold change of degron read counts” value turned out to be 0.78. To B41 belongs -0.408; to B42, -1.72; to B43, 1.08.

In the case of B44, the “log2 fold change of degron read counts” value was -1.31.

B45: the “log2 fold change of degron read counts” value was found to be 0.706. For the sequence B46, the “log2 fold change of degron read counts” value was 1.57.

For the sequence B47, the “log2 fold change of degron read counts” value was -2.65. As to B48, the “log2 fold change of degron read counts” value stood at 1.42.

As for B49, the “log2 fold change of degron read counts” value is -1.27. Consider B50, for which the “log2 fold change of degron read counts” value was -0.271.
